Data on two substances can be found in paper PMC6633398.

Protein sequences, listed by entry. Tags and fused reporters are not part of them. Lines headed by an entry give the natural chain unless they say otherwise; changes in a name come on top.
UniProt O43681: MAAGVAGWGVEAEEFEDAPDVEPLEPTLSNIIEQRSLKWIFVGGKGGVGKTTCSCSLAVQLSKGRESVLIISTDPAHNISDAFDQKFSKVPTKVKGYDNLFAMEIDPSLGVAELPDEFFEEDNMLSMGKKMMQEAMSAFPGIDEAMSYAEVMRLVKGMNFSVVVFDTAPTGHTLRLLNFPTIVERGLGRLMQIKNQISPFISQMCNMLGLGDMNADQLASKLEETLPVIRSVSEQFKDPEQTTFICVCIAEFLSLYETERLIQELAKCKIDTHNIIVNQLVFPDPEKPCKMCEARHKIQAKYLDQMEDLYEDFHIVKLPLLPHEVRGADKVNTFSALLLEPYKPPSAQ
UniProt O95292: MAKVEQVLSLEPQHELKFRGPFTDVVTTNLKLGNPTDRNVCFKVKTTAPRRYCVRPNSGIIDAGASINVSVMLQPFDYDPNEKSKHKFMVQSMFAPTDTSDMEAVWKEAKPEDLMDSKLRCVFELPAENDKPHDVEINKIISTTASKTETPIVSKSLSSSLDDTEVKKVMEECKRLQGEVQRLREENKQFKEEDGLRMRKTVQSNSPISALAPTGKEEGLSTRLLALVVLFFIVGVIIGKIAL

Results are given in words; binding and its absence hold for the method and conditions named. Binding seen in cells or lysates may run through a third protein. Some entries that bind do so weakly or less than the wild type.

This assay deals with c-Myc–TRC40_(D74E), ATPase-impaired trap mutant of TRC40 (UniProt O43681). Nature of the assay: co-IP; c-Myc–TRC40 variants expressed in transfected HEK293 cells; precipitated with anti-c-Myc agarose from the cytosolic fraction (180,000 g, 1 h) in the absence of detergent; IP buffer 50 mM HEPES, 150 mM NaCl, 1.5 mM MgCl2, 1 mM EGTA, pH 7.4; 2.5 h; endogenous TA proteins detected by western blot.

As for “nesprin SYNE1 (from UniProt Q8NF91 1-8797)”, the binding entry is “no binding”.

Regarding “vesicle-associated membrane-protein-associated protein VAPB (from UniProt O95292 1-243)”, the binding result was “binds”.
